# From the supplement of paper PMC11055344
# Legend:
# amoxicillin = compound: CC1(C)S[C@@H]2[C@H](NC(=O)[C@H](N)c3ccc(O)cc3)C(=O)N2[C@H]1C(=O)O [amoxicillin]; assay: Broth microdilution.
# penicillin G = compound: CC1(C)S[C@@H]2[C@H](NC(=O)Cc3ccccc3)C(=O)N2[C@H]1C(=O)O [penicillin G]; assay: Broth microdilution.
Test System,MIC (amoxicillin) [µg/mL],MIC (penicillin G) [µg/mL]
"Streptococcus pneumoniae isolate 375 (PBP alleles 1a 2b 2x: 0_0_53, serotype: 10A)",≤ 0.01,≤ 0.01
"Streptococcus pneumoniae isolate 376 (PBP alleles 1a 2b 2x: 2_0_6, serotype: 33F)",≤ 0.01,≤ 0.01
"Streptococcus pneumoniae isolate 377 (PBP alleles 1a 2b 2x: 0_0_3, serotype: 35F)",≤ 0.01,≤ 0.01
"Streptococcus pneumoniae isolate 378 (PBP alleles 1a 2b 2x: 0_0_New, serotype: 35B)",0.03,0.06
"Streptococcus pneumoniae isolate 379 (PBP alleles 1a 2b 2x: 0_0_3, serotype: 35F)",≤ 0.01,0.03
"Streptococcus pneumoniae isolate 380 (PBP alleles 1a 2b 2x: 11_4_0, serotype: 37)",≤ 0.01,≤ 0.01
"Streptococcus pneumoniae isolate 381 (PBP alleles 1a 2b 2x: 1_0_0, serotype: 15A)",≤ 0.01,0.03
"Streptococcus pneumoniae isolate 382 (PBP alleles 1a 2b 2x: 1_2_2, serotype: 22F)",≤ 0.01,0.03
"Streptococcus pneumoniae isolate 383 (PBP alleles 1a 2b 2x: 0_0_3, serotype: 35F)",≤ 0.01,0.03
"Streptococcus pneumoniae isolate 384 (PBP alleles 1a 2b 2x: 0_0_53, serotype: 10A)",≤ 0.01,≤ 0.01
"Streptococcus pneumoniae isolate 385 (PBP alleles 1a 2b 2x: 0_0_53, serotype: 10A)",≤ 0.01,0.03
"Streptococcus pneumoniae isolate 386 (PBP alleles 1a 2b 2x: 2_0_2, serotype: 21)",≤ 0.01,≤ 0.01
"Streptococcus pneumoniae isolate 387 (PBP alleles 1a 2b 2x: 2_6_0, serotype: 11A)",≤ 0.01,≤ 0.01
"Streptococcus pneumoniae isolate 388 (PBP alleles 1a 2b 2x: 7_67_1, serotype: 23B1)",0.06,0.125
"Streptococcus pneumoniae isolate 389 (PBP alleles 1a 2b 2x: 15_76_New, serotype: 11A)",4,2
"Streptococcus pneumoniae isolate 390 (PBP alleles 1a 2b 2x: 0_0_3, serotype: 35F)",0.03,0.03

# MIC of nasopharyngeal S. pneumoniae isolates by broth microdilution (range and time not stated); higher = less susceptible. No active / inactive call per row; the paper counts penicillin above 0.06 and amoxicillin above 0.5 mg/L as non-susceptible (EUCAST). The lowest value, 0.01, is taken as the floor ('<='); the source prints it plain. Penicillin G is assumed for 'penicillin'. Isolates are numbered anew. PBP alleles are the type numbers of penicillin-binding proteins 1a, 2b and 2x; equal numbers mean equal sequences.
